Here are results for two molecules from patent US4169096A, “Antibiotic compounds” (priority 1977, dated 1979).

Converted amounts (≈) assume the structure as drawn.

The test system of one assay is aerobic organisms. Nature of the assay: Antibacterial activity against aerobic bacteria (in words). It counts as cell-based. The settings on record: such as S. aureus, E. coli and K. pneumoniae.
Assay [1] concerns Clostridium chavoei A9561. The assay is described as follows: microbe, parasite or virus in culture.

As to `COC(=O)C1C(C)OC2(C)CC(=O)C3OC12OC(C(C)/C=C(C)/C=C/C(=O)C1=C(O)CN(C)C1=O)C3C` (stereo not drawn) [Bu-2313A], the “activity against usual aerobic organisms” value with aerobic organisms is “only moderate to weak activity”. The MIC in assay [1] was 0.2 mg/L (≈ 0.386 µM).
For the molecule `COC(=O)C1C(C)OC2(C)CC(=O)C3OC12OC(C(C)/C=C(C)/C=C/C(=O)C1=C(O)CNC1=O)C3C` (stereo not drawn) [Bu-2313B], the “activity against usual aerobic organisms” value with aerobic organisms is listed as “only moderate to weak activity”.
